In PubChem BioAssay AID1768 (National Center for Advancing Translational Sciences (NCATS), 2009):
“And” between values parts separate entries of the source, which are not always exact repeats. Equal entries are not always repeated. About 620 (0.23%) of roughly 270,000 compounds were called active. This list was built around the results that the source calls inconclusive (neither active nor inactive); the mix of calls is not that of the screen. The call rests on the fitted dose curve; in most records, active means well fitted inhibition curve with a large enough effect in the polarisation, with a control signal flat (not every such curve was filed as active); inconclusive means small, poorly fitted or top-dose-only effect, or effect the other way, or a change in a side signal; inactive means no such curve, though single readings can be large or run the other way; the % refers to the polarisation. Potencies of inconclusive entries are doubtful fits and often do not repeat. A note “side channel” means that the fit belongs to a control or component signal, not to the main read-out.

These compounds were tested against Menin (Homo sapiens) (UniProt O00255) (assay: qHTS Assay for Inhibitors Targeting the Menin-MLL Interaction in MLL Related Leukemias: Competition With Texas Red Labeled MLL-derived Mutant Peptide). Conditions: fluorescence polarization; FP activity change, negative = inhibition: at 61.6 µM (top of the series).
Potency means the concentration at half of the fitted maximal effect; tags describe the fitted curve by direction and shape or compound fluorescence and quenching.
Wherever FP activity change, negative = inhibition is given: % of control where 0% means no effect.

UniProt O00255, sequence (O00255 whole entry, looked up): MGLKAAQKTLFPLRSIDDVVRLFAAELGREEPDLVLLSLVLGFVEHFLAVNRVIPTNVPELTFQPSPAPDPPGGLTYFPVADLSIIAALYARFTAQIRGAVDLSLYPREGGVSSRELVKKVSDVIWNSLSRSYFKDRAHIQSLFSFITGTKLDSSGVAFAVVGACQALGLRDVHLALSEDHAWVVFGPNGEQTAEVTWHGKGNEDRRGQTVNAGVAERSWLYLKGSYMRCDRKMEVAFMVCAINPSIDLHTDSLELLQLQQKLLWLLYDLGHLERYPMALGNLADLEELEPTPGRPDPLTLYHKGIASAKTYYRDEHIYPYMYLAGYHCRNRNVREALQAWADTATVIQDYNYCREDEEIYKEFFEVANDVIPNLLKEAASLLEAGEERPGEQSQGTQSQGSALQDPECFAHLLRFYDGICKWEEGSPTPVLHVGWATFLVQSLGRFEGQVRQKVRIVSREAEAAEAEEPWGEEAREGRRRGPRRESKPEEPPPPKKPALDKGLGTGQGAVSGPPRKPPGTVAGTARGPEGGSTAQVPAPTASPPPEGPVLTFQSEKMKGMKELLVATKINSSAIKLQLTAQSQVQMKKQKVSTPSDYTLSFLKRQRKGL

Potency, inconclusive:
COc1ccccc1-c1nc(NCc2cnc(C)cn2)c2ccccc2n1 0.316 µM [inhibitor, full curve, poor fit]
CCCC[C@@H]1CNC(=S)N1CCC12CC3CC(CC(C3)C1)C2 14.1 µM [fluorescent, side channel, partial curve]
O=[N+]([O-])c1ccc2oc(-c3cccc(O)c3)nc2c1 25.1 µM [quencher, side channel, partial curve]
CC(C)(c1ccccc1)c1ccc(OCCN2CCCC2)cc1 25.1 µM [inhibitor, partial curve]
COc1ccc(CCNC(=O)Cc2cc(OCc3ccccc3)c(OC)cc2[N+](=O)[O-])cc1OC 28.2 µM [inhibitor, single point]
O=C(O)c1cc(O)c2c(c1)[C@H]([C@H]1c3cc(C(=O)O)cc(O)c3C(=O)c3c(O[C@@H]4OC(CO)C(O)C(O)C4O)cccc31)c1cccc(O[C@@H]3OC(CO)C(O)C(O)C3O)c1C2=O (stereo not given in full) 15.8 µM [quencher, side channel, partial curve]
CCc1cccc(NC(=O)Cn2ncn3c(cc4ccccc43)c2=O)c1 28.2 µM [quencher, side channel, partial curve]
CC(=O)CCc1ccc(OCCCOc2cccc3cccnc23)cc1 12.6 µM [fluorescent, side channel, partial curve]
CC(=O)c1ccc(NC(=O)Nc2sc(NS(=O)(=O)c3ccccc3)nc2C)cc1 12.6 µM [quencher, side channel, partial curve]
Cc1sc(N/N=C/c2ccco2)nc1-c1ccccc1 28.2 µM [quencher, side channel, single point]
Oc1ccccc1/C=N/Nc1ccccc1 25.1 µM [quencher, side channel, partial curve]
CCC(C)(C)NC(=O)C(c1ccc(OC)cc1)N(C(=O)CCC(=O)Nc1cc(C)on1)c1ccccc1OC (stereo not given) 3.98 µM [fluorescent, side channel, partial curve]
Cc1ccc(C(=O)Nc2cccc(C(=O)N/N=C/c3ccc(F)cc3)c2)cc1 39.8 µM [inhibitor, single point]
Nc1cccc(C2=Nc3cccc4cccc(c34)N2)c1 12.6 µM [quencher, side channel, partial curve]
CN1CCN(CC/C=C2/c3ccccc3Sc3ccc(S(=O)(=O)N(C)C)cc32)CC1 20 µM [fluorescent, side channel, partial curve] and 11.2 µM [fluorescent, side channel, partial curve]
Cc1nn(-c2cccc(Cl)c2)c2nc(-c3ccco3)cc(C(=O)O)c12 20 µM [quencher, side channel, partial curve]
Cc1ccc(-c2ocnc2C(=O)Nc2ccccc2NC(=O)c2ccccn2)cc1 20 µM [quencher, side channel, partial curve]
CCCCN(CC)C(=O)CSc1nc2c(sc(=S)n2-c2ccc(OCC)cc2)c(=O)[nH]1 22.4 µM [quencher, side channel, partial curve]
CC(C)(C=O)Cc1cc(C(C)(C)C)c(O)c(C(C)(C)C)c1 12.6 µM [fluorescent, side channel, partial curve]
Cc1cc2ccccn2c1C(=O)Nc1ccc(Cl)cc1 10 µM [quencher, side channel, partial curve]
COc1ccc(OC)c(NC(=O)c2c(NC(=O)CCC(=O)O)sc3c2CCCCC3)c1 14.1 µM [quencher, side channel, partial curve]
CCOc1cccc(N(C(=O)C2COc3ccccc3O2)C(C(=O)NC2CCCCC2)c2ccc(O)cc2)c1 (stereo not given) 39.8 µM [inhibitor, single point]
CC1CCCC1/C(=N/O)c1ccccc1 (stereo not given) 39.8 µM [inhibitor, single point]
CCOC(=O)CN(C)C(=O)CCc1nnc(-c2ccc(-c3ccccc3)cc2)o1 31.6 µM [fluorescent, side channel, single point]
O=[N+]([O-])c1ccc(C(O)CN=Cc2ccc(O)cc2O)cc1 (stereo not given) 22.4 µM [quencher, side channel, partial curve]
O=C(Nc1ccc2sccc2c1)c1ccc(Cl)s1 14.1 µM [quencher, side channel, partial curve]
COc1ccc(NC(=O)C#Cc2ccccc2)cc1 50.1 µM [quencher, side channel, partial curve]
C=CCn1c(NC(=O)c2ccccc2Cl)c(C#N)c2nc3ccccc3nc21 28.2 µM [quencher, side channel, partial curve]
Cc1ccc(Cn2ccc(NC(=O)c3nn(C)cc3Cl)n2)cc1 39.8 µM [inhibitor, single point]
O=S(=O)(O)c1cc(O)c2c(O)c(N=Nc3cc(Cl)ccc3O)c(S(=O)(=O)O)cc2c1 6.31 µM [fluorescent, side channel, partial curve]
Cc1cccc([C@@H]2C[C@H]3CN(Cc4cccc(Cl)c4)C(=O)[C@]34CCCN24)n1 14.1 µM [fluorescent, side channel, partial curve]

FP activity change, negative = inhibition, inactive:
CC(C)(C)Nc1oc(-c2ccccc2)nc1-c1ccc(C(F)(F)F)cc1 2.95%
O=C(CCCc1ccccc1)N1CCN(C2CCCCC2)CC1 4.66%
Cc1nc(-c2ccccc2)c(-c2ccccc2)[nH]1 6.86%
O=C(NCCc1c[nH]c2ccccc12)c1ccc2c(c1)OCO2 26.3%
